For one assay, the target named is monkey EGFR-GST (monkey) (UniProt P55245). In words: SPR (Biacore T100), bispecific captured via anti-human IgG, antigen as analyte, single cycle kinetics. (SPR reads the build-up and loss of mass on a sensor chip optically.)
Assay [1] has as its target human EGFR-GST (human) (UniProt P00533). Described as above.
The target is the same in assay [2]. In words: SPR (Biacore T100), KD for human EGFR-GST divided by KD for monkey EGFR-GST.

B1: E08-TfR1071 (bispecific antibody, part only; not given: light constant region, not shown: another chain or arm of the molecule)
heavy: EVQLVESGGGLVQPGGSLRLSCAASGFSFNNNAMNWVRQAPGKGLEWVSGIRADGGTTYYADSVKGRFTISRDNSKNTLYLQMNSLRAEDTAVYFCGKTPDWEIFYYAMDAWGQGTTVTVSSASTKGPSVFPLAPCSRSTSESTAALGCLVKDYFPEPVTVSWNSGALTSGVHTFPAVLQSSGLYSLSSVVTVPSSSLGTKTYTCNVDHKPSNTKVDKRVYVQLVESGGGLVQPGGSLRLSCAASGFSFDKYTMNWVRQAPGKGLEWVSVISNGGVSTDYADSVKGRFTVSRDNSKNTLYLQMNSLRAEDMATYYCARASQPWLYRTGADVWGQGTLVTVSSASTKGPSVFPLAPCSRSTSESTAALGCLVKDYFPEPVTVSWNSGALTSGVHTFPAVLQSSGLYSLSSVVTVPSSSLGTKTYTCNVDHKPSNTKVDKRV[left out - human IgG4 Fc with S228P L235E R409K (EU numbers)]
VL: [left out - about 100 residues]
A word on the Kd: it is a measure of binding affinity in units of concentration. Turning to B1, the dissociation constant Kd with monkey EGFR-GST (monkey) came to 0.15 nM; with human EGFR-GST (human) [1] it was 0.13 nM. Further, the Human EGFR [nM]/Monkey EGFR [nM] (KD ratio) with human EGFR-GST (human) [2] was 0.87.

(Values after patent US20220017635A1.)
